# Test results reported in PubChem BioAssay AID504339 (National Center for Advancing Translational Sciences (NCATS), 2011).
# The whole screen tested about 390,000 compounds, of which about 17,000 (4.4%) were called active. The shares of active, inactive and inconclusive entries below differ from those in the screen. Calls come from the whole dose curve; as a rule, active = well fitted inhibition curve with a large enough effect; inconclusive = small, poorly fitted or top-dose-only effect; inactive = no such curve, though single readings can be large or run the other way. Potencies beside an inconclusive call are fits to weak or partial responses and may not hold up. The source holds several records for some structures; these can differ, active in one and inactive in another.
# Target: Lysine-specific demethylase 4A (Homo sapiens) (UniProt O75164)
# UniProt O75164, sequence (O75164 whole entry, looked up, the tested form may be a part): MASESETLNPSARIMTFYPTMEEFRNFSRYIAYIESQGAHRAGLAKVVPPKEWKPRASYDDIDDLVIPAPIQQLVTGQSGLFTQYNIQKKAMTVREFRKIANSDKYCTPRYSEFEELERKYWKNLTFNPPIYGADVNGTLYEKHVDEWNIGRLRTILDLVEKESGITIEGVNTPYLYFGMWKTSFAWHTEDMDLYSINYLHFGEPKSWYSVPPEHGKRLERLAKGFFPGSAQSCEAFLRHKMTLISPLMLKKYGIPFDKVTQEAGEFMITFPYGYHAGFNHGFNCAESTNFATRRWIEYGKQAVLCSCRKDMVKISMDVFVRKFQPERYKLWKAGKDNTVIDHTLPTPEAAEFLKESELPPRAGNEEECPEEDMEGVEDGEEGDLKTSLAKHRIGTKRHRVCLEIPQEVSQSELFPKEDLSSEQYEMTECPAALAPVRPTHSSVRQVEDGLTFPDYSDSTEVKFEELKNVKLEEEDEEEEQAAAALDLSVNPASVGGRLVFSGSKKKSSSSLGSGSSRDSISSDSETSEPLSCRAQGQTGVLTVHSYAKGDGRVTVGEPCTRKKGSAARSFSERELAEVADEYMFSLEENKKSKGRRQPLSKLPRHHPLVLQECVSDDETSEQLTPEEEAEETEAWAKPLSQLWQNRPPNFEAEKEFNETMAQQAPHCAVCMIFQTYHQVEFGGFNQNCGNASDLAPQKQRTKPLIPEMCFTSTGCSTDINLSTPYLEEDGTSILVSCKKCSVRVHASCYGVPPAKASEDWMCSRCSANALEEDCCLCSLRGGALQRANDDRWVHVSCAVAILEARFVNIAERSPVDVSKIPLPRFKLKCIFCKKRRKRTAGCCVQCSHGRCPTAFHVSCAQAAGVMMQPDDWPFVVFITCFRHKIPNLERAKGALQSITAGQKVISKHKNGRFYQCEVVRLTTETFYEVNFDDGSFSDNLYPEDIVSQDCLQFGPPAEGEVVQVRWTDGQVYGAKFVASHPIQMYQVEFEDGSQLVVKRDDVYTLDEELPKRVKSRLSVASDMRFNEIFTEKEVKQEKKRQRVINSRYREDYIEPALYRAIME
# Assay: qHTS Assay for Inhibitors of JMJD2A-Tudor Domain; note: nearly all actives have a fitted effect of over 50% in size
# Details: AlphaScreen JMJD2A-Tudor / H3K4me3 peptide binding; activity change, negative = inhibition: at 114 µM (top of the series)
# % is set by controls: 0 for no effect and ±100 for the full control effect; potency is the fitted concentration of half-maximal effect; tags give direction and shape of the fitted curve.
SMILES,Potency,"activity change, negative = inhibition"
S=c1nc(-c2ccc(Cl)cc2)[nH][nH]1,"inconclusive: 14.1 µM [inhibitor, single point]",
CCOc1ccc(OCc2cccc(C(=O)Nc3ccc(CN4CCCCC4)cc3)c2)cc1,"inconclusive: 44.7 µM [inhibitor, partial curve]",
CC(C)c1ccc(N(CC(=O)NC2CCCC2)C(=O)CCC(=O)Nc2ccccn2)cc1,active: 50.1 µM,
COCCNS(=O)(=O)c1cc(-c2nn(C)c(=O)c3ccccc23)ccc1C,"inconclusive: 89.1 µM [inhibitor, single point]",
Clc1cccc(-c2nc(-c3ccccn3)no2)c1,,inactive: 3.05% [at 11.4 µM]
Cc1c(NC(=O)c2cc(-c3ccc(F)cc3)on2)c(=O)n(-c2ccccc2)n1C,active: 79.4 µM,
CC(C)CC1Nc2ncnc(N3CCN(c4ccccc4)CC3)c2N(Cc2ccc(Br)cc2)C1=O (centres undefined),"inconclusive: 70.8 µM [inhibitor, partial curve]",
CC(C)(C)c1csc(NC(=O)Cn2cnc3ccccc3c2=O)n1,"inconclusive: 56.2 µM [inhibitor, partial curve]",
COc1cc(-c2c(C(C)=O)c(C)nc3c2C(=O)c2ccccc2-3)cc(OC)c1OC,,inactive: 4.9%
CCn1c(O)c(N=NC(=S)NCC2CCCO2)c2ccccc21 (centres undefined),"inconclusive: 7.08 µM [inhibitor, full curve]",
FC(F)(F)c1ccccc1CN1CCN(C2CCCCCC2)CC1,active: 6.31 µM,
Cc1ccc(N2C(=O)/C(=C\c3ccc(C(C)C)cc3)N=C2SC2CCOC2=O)cc1 (centres undefined),"inconclusive: 35.5 µM [inhibitor, partial curve]",
CCCCNC(=S)NCc1ccc2c(c1)cc(C)n2C,"inconclusive: 79.4 µM [inhibitor, partial curve]",
Cc1cccc(/C=N/NC(=O)C(C)Nc2cccc3ccccc23)n1 (centres undefined),"inconclusive: 70.8 µM [inhibitor, partial curve, poor fit]",
N#Cc1ccccc1NC(=O)CNc1ccccc1N1CCCCC1,"inconclusive: 50.1 µM [inhibitor, partial curve]",
O=S(=O)(Nc1cc(F)ccc1F)c1ccc2[nH]c3c(c2c1)CCCC3,"inconclusive: 50.1 µM [inhibitor, partial curve]",
O=C(CNc1ccc(Br)cc1)NNC1=NCCC1,"inconclusive: 1.41 µM [inhibitor, full curve, poor fit]",
COCCCNC(=O)/C(C#N)=C/c1c(N2CCN(c3ccccc3)CC2)nc2c(C)cccn2c1=O,"inconclusive: 12.6 µM [inhibitor, full curve, poor fit]",
COc1cccc(CNC(=O)c2ccc3c(c2)c(C)c(C)n3Cc2ccccc2)c1OC,"inconclusive: 12.6 µM [inhibitor, full curve, poor fit]",
Cc1cccnc1NC(=S)NCCc1ccccc1,active: 20 µM,
COc1ccc(-n2nc(C(=O)N3CCCC(C)C3)c3c4ccccc4n(C)c3c2=O)cc1 (centres undefined),,inactive: -20%
c1ccc2c(c1)nnn2Cc1nnc2sc(-c3ccc4c(c3)OCCO4)nn12,,inactive: -29.4%
Cc1cc(NC(=O)CCCN2C(=O)c3cccnc3C2=O)no1,"inconclusive: 3.98 µM [inhibitor, single point]",

SMILES,Potency,"activity change, negative = inhibition"
COc1ccc(-n2ccnc(NCc3ccccc3OC)c2=O)cc1,,inactive: -14.3%
CCOC(=O)c1sc2ccccc2c1S(=O)(=O)Nc1ccc(CC)cc1,,inactive: -10.6%
Cn1c2ccccc2c2c(C(=O)N3CCN(c4ccccn4)CC3)cn(C3CCCC3)c(=O)c21,"inconclusive: 56.2 µM [inhibitor, partial curve, poor fit]",
COCCNC(=S)Nc1ccc(N2CCOCC2)c(S(=O)(=O)Nc2ccccc2OC)c1,"inconclusive: 56.2 µM [inhibitor, partial curve]",
C/C=C(\C)C(=O)NNC(=O)c1sc(-c2ccccc2)nc1C,,inactive: -0.699%
O=S(=O)(Nc1cccc(Br)c1)c1cccc2nsnc12,,inactive: -31%
CC1CCCCN1S(=O)(=O)c1ccc(C(=O)Nc2nnc(-c3ccncc3)o2)cc1 (centres undefined),"inconclusive: 63.1 µM [inhibitor, partial curve]",
COc1ccccc1C=NN=C1c2ccccc2-c2ccccc21,"inconclusive: 14.1 µM [inhibitor, full curve]",
CN(C)c1ccc(CNC(=O)c2cccc(NC(=O)N3CCSc4ncccc43)c2)cc1,"inconclusive: 50.1 µM [inhibitor, partial curve]",
CC(=O)Nc1cccc(NC(=O)c2cc([N+](=O)[O-])ccc2N2CCCCC2)c1,"inconclusive: 79.4 µM [inhibitor, partial curve]",
C=CCn1c(SC(CCO)C(=O)NCc2ccco2)nc2sc3c(c2c1=O)CCC3 (centres undefined),"inconclusive: 89.1 µM [inhibitor, partial curve]",
CN1CCN(/N=C/c2ccc(-c3ccc([N+](=O)[O-])cc3Cl)o2)CC1,active: 56.2 µM,
COc1cc(/C=N/N2CCOCC2)ccc1OC(=O)c1ccco1,"inconclusive: 89.1 µM [inhibitor, partial curve]",
O=C1N(Cc2ccccc2)c2ccc(Cl)cc2C1(O)c1c[nH]c2ccccc12 (centres undefined),"inconclusive: 44.7 µM [inhibitor, partial curve]",
CCCC(=O)C1=C(c2ccccc2)C(C#N)(C#N)C(C#N)=C1N,"inconclusive: 100 µM [inhibitor, partial curve, poor fit]",
CCc1c(C(=O)Nc2ccccc2)c(C)[nH]c(=S)c1C#N,active: 7.08 µM,
Cc1ccc(C(=O)Nc2nnc(CC(=O)N/N=C/c3ccc(O)c(O)c3)s2)cc1,"inconclusive: 56.2 µM [inhibitor, partial curve, poor fit]",
Cc1sc2nc(CSc3ccccc3)nc(N3CCC(C(N)=O)CC3)c2c1C,"inconclusive: 63.1 µM [inhibitor, partial curve]",
O=C1C2CCCN2C(c2ccc(F)cc2)N1c1ccc(Cl)cc1 (centres undefined),"inconclusive: 100 µM [inhibitor, single point]",
CN(C)C(=O)NC(Nc1cccc([N+](=O)[O-])c1)C(Cl)(Cl)Cl (centres undefined),,inactive: -19.6%
COc1ccc(N2CCN(C(=O)CN3C(=O)NC(c4ccc(OC)cc4)(c4ccc(OC)cc4)C3=O)CC2)cc1,"inconclusive: 12.6 µM [inhibitor, full curve, poor fit]",
Cc1cccnc1NC(=O)c1c(O)c2ccccc2n(C)c1=O,"inconclusive: 56.2 µM [inhibitor, partial curve]",
CC1CC(C)(C)OC(C[N+]2(C)CCCCC2)O1 (centres undefined),"inconclusive: 28.2 µM [inhibitor, single point]",

SMILES,Potency,"activity change, negative = inhibition"
S=c1[nH]nc(-c2ccc(Cl)cc2)n1-c1ccc2c(c1)OCCO2,"inconclusive: 28.2 µM [inhibitor, single point]",
c1ccc(-c2nc3nonc3nc2-c2ccccc2)cc1,active: 39.8 µM,
CCC(=O)Nc1ccc(S(=O)(=O)Nc2cc(C)on2)cc1,,inactive: -16.2%
O=C(CCC(=O)N1CCSc2ccccc21)NCc1ccccc1Cl,,inactive: -2.18%
C/C(=N\Nc1ccc(C(=O)O)cc1)c1ccc(S(=O)(=O)NCc2ccco2)cc1,,inactive: -20.7%
Nc1c(C(=O)N2CCCC2)sc2nc(-c3ccccc3)ccc12,,inactive: 32.4%
COc1ccc(C2Nc3ccc(Cl)cc3C(=O)N2Cc2ccccc2)cc1COc1ccc(NC(C)=O)cc1 (centres undefined),active: 56.2 µM,
C=CCNCC(=O)Nc1sc2c(c1C(=O)Nc1ccc(OC)cc1OC)CCC2,,inactive: -30.8%
COc1ccc(S(=O)(=O)N2CCCCC2)cc1NC(=S)Nc1cccc(Cl)c1C,,inactive: -22.6%
COc1cc(NC(=O)CN2C(=O)NC(C)(CC(C)C)C2=O)cc(OC)c1 (centres undefined),"inconclusive: 89.1 µM [inhibitor, single point]",
CCN(CCCNC(=O)c1cc2cc3ccc(OC)cc3nc2s1)c1cccc(C)c1,"inconclusive: 25.1 µM [inhibitor, partial curve]",
COc1cc2c(cc1OC)/C(=C/C(=O)N1CCOCC1)NC(C)(C)C2,"inconclusive: 89.1 µM [inhibitor, single point]",
O=S(=O)(O)c1c(NS(=O)(=O)c2ccccc2)ccc2ccccc12,active: 89.1 µM,
CC[C@]12c3[nH]c4cc(-c5ccco5)ccc4c3CCN1C(=O)[C@@H](CC(=O)NCCc1ccccn1)C[C@@H]2C(=O)N1CCN(C(=O)c2ccco2)CC1,"inconclusive: 56.2 µM [inhibitor, partial curve]",
COc1ccc(Cl)cc1NC(=O)C(=O)N/N=C/c1cc(C)n(-c2ccc(C)cc2)c1C,"inconclusive: 2.82 µM [inhibitor, single point]",
Cn1nnc2c(NCc3ccccc3)ncnc21,,inactive: 9.09%
O=C(O)CCN1C(=O)/C(=C\c2ccc(OCc3ccccc3)c(OCc3ccccc3)c2)SC1=S,active: 44.7 µM,
CC1(C)CC(=O)/C(=C(\O)CCCN2C(=O)c3ccccc3C2=O)C(=NCCO)C1,"inconclusive: 50.1 µM [inhibitor, partial curve]",
O=C(c1ccccc1)c1c[nH]c(C(=O)NNc2cccc(Cl)n2)c1,"inconclusive: 56.2 µM [inhibitor, partial curve]",
Cc1oc2c(O)c(O)ccc2c(=O)c1-c1ccc(Cl)cc1,,inactive: -29%
COc1ccc(-c2oc(=O)c3cc(OC)c(OC)cc3c2/C=C/c2ccc([N+](=O)[O-])cc2)cc1,"inconclusive: 35.5 µM [inhibitor, partial curve]",
NC(=O)c1ccc(NC(=O)COC(=O)c2ccc(Cl)nc2)cc1,,inactive: -3.38%
Cc1nn(-c2ccc([N+](=O)[O-])cc2)c(N)c1-c1ccccc1,"inconclusive: 63.1 µM [inhibitor, partial curve]",
